Measurements as given in US20260139049A1 (PEDIATRIC IMMUNITY AND HEALTHCARE GUANGZHOU BIOTECHNOLOGY, published 2026).

T1: human CLDN6 (human, UniProt P56747 1-220)
T1 construct: whole, on cells; four-transmembrane protein; also called claudin-6; HEK293T-CLDN6
T1 sequence (looked up): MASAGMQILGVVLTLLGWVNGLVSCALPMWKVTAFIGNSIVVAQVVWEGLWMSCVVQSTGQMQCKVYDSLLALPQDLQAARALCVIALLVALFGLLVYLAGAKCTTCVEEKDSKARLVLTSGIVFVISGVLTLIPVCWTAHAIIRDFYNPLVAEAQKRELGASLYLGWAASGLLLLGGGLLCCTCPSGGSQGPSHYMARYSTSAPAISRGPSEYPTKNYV

B1: PiH2001 (antibody, human IgG1, kappa)
heavy: QVQLVQSGAEVKKPGASVKVSCKASGYTFTDYNMHWVRQAPGQRLEWIGYINPNNGATNYNQKFKGRATITVDTSASTAYMELSSLRSEDTAVYYCARWDGYVYYYGMDYWGQGTLVTVSS[human IgG1 constant region not spelt out]
light: DIQMTQSPSSLSASVGDRVTITCKASDHINNWLAWYQQKPGKAPKLLISGATSLETGVPSRFSGSGSGTDYTFTISSLQPEDIATYYCQQYWNTPYTFGGGTKLEIKRTVAAPSVFIFPPSDEQLKSGTASVVCLLNNFYPREAKVQWKVDNALQSGNSQESVTEQDSKDSTYSLSSTLTLSKADYEKHKVYACEVTHQGLSSPVTKSFNRGEC
notes: humanized from 54B5A7; IgG1; also called 54-VH1 + VL3
B2: PiH2004 (antibody, human IgG1, kappa)
heavy: B1 heavy with R44S, T74K, Y95N
light: B1 light
notes: humanized from 54B5A7; IgG1; also called 54-VH4 + VL3
B3: PiH2005 (antibody, human IgG1, kappa)
heavy: B1 heavy
light: B1 light with D17G
notes: humanized from 54B5A7; IgG1; also called 54-VH1 + VL4
B4: PiH2008 (antibody, human IgG1, kappa)
heavy: B1 heavy with R44S, T74K, Y95N
light: B1 light with D17G
notes: humanized from 54B5A7; IgG1; also called 54-VH4 + VL4

Legend:
human CLDN6 [1] = biological target: T1, human CLDN6; test: FACS on HEK293T-CLDN6 cells
Description: To detect a binding capacity of a chimeric or humanized antibody to CLDN6, a CLDN6-expressing cell line HEK293T-CLDN6 and a CLDN6-negative control cell line HEK293T were washed three times with PBS. 1×10⁵ test cells and 50 μL of an antibody solution to be tested were added to a 96-well plate, and incubated at 4° C. for 1 h. The cells were then washed three times with PBS. […] Finally, cells were washed three times with PBS, and signals were read using FACS.
An EC50 value (a concentration of an antibody that binds to half of binding sites at equilibrium) is calculated through nonlinear regression.

human CLDN6 [2] = biological target: T1, human CLDN6; test: FACS on PA-1 tumour cells; target on the cells taken as CLDN6
Description: (§1) 50 μL of an antibody to be tested was added to a 96-well plate, then 1×10⁵ cells were added to each well, and incubation was conducted at 4° C. for 1 h. Cells were washed three times with PBS. […] Finally, cells were washed three times with PBS, and signals were read using FACS. A binding capacity of the antibody to each tumor cell was analyzed based on detection data.

human CLDN6 [3] = biological target: T1, human CLDN6; test: FACS on HepG2 tumour cells; target on the cells taken as CLDN6
Description: as §1

Binder | EC50 (human CLDN6 [1]) [µg/mL] | EC50 (human CLDN6 [2]) [µg/mL] | EC50 (human CLDN6 [3]) [µg/mL]
B1 | 0.751 | 0.945 | 
B2 | 0.282 | 0.949 | 1.86
B3 | 0.62 | 1 | 
B4 | 0.43 | 0.871 | 1.69

Positions count from the first letter of the chain named.
